Test results: paper PMC9911399, “Two distinct binding modes provide the RNA-binding protein RbFox with extraordinary sequence specificity”
Positions count from the first letter of the chain named. Some of the results follow.

T1: RBFOX1 RRM (Homo sapiens, UniProt Q9NWB1 109-208)
T1 sequence: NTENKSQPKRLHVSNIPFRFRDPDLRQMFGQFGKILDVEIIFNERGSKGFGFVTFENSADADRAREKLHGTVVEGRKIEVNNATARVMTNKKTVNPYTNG

B1: UAUAUAA (DNA:RNA)
RNA: GGGAGACCGGAAUUCAGAUUGUCCUAUAUAAUUAAAUCCCGUCGUAGCCACCA
DNA 1: CAATCTGAATTCCGGTCTCCC
DNA 2: TGGTGGCTACGACGGGATT
B2: AGCCUUU (DNA:RNA)
RNA: B1 RNA with U25A, A26G, U27C, A28C, A30U, A31U
DNA 1: CAATCTGAATTCCGGTCTCCC
DNA 2: TGGTGGCTACGACGGGATT
B3: GCCUGAU (DNA:RNA)
RNA: B1 RNA with U25G, A26C, U27C, A28U, U29G, A31U
DNA 1: CAATCTGAATTCCGGTCTCCC
DNA 2: TGGTGGCTACGACGGGATT
B4: AGAUAUC (DNA:RNA)
RNA: GGGAGACCGGAAUUCAGAUUGUCCAGAUAUCUUAAAUCCCGUCGUAGCCACCA
DNA 1: CAATCTGAATTCCGGTCTCCC
DNA 2: TGGTGGCTACGACGGGATT
B5: GGCUCGU (DNA:RNA)
RNA: B4 RNA with A25G, A27C, A29C, U30G, C31U
DNA 1: CAATCTGAATTCCGGTCTCCC
DNA 2: TGGTGGCTACGACGGGATT
B6: AACUUAC (DNA:RNA)
RNA: B4 RNA with G26A, A27C, A29U, U30A
DNA 1: CAATCTGAATTCCGGTCTCCC
DNA 2: TGGTGGCTACGACGGGATT
B7: UCUCGUG (DNA:RNA)
RNA: B1 RNA with A26C, A28C, U29G, A30U, A31G
DNA 1: CAATCTGAATTCCGGTCTCCC
DNA 2: TGGTGGCTACGACGGGATT
B8: GAGUAAA (DNA:RNA)
RNA: B1 RNA with U25G, U27G, A28U, U29A
DNA 1: CAATCTGAATTCCGGTCTCCC
DNA 2: TGGTGGCTACGACGGGATT
B9: UGCUCAG (DNA:RNA)
RNA: B4 RNA with A25U, A27C, A29C, U30A, C31G
DNA 1: CAATCTGAATTCCGGTCTCCC
DNA 2: TGGTGGCTACGACGGGATT
B10: GCGGGUA (DNA:RNA)
RNA: B4 RNA with A25G, G26C, A27G, U28G, A29G, C31A
DNA 1: CAATCTGAATTCCGGTCTCCC
DNA 2: TGGTGGCTACGACGGGATT
B11: AAGCCAG (DNA:RNA)
RNA: B1 RNA with U25A, U27G, A28C, U29C, A31G
DNA 1: CAATCTGAATTCCGGTCTCCC
DNA 2: TGGTGGCTACGACGGGATT
B12: CAUGCAU (DNA:RNA)
RNA: B1 RNA with U25C, A28G, U29C, A31U
DNA 1: CAATCTGAATTCCGGTCTCCC
DNA 2: TGGTGGCTACGACGGGATT
B13: GAAGAAG (DNA:RNA)
RNA: B4 RNA with A25G, G26A, U28G, U30A, C31G
DNA 1: CAATCTGAATTCCGGTCTCCC
DNA 2: TGGTGGCTACGACGGGATT
B14: AGGUGGA (DNA:RNA)
RNA: B4 RNA with A27G, A29G, U30G, C31A
DNA 1: CAATCTGAATTCCGGTCTCCC
DNA 2: TGGTGGCTACGACGGGATT
B15: GACUACU (DNA:RNA)
RNA: B4 RNA with A25G, G26A, A27C, U30C, C31U
DNA 1: CAATCTGAATTCCGGTCTCCC
DNA 2: TGGTGGCTACGACGGGATT
B16: AUCAGCC (DNA:RNA)
RNA: B4 RNA with G26U, A27C, U28A, A29G, U30C
DNA 1: CAATCTGAATTCCGGTCTCCC
DNA 2: TGGTGGCTACGACGGGATT
B17: AAGAUUG (DNA:RNA)
RNA: B1 RNA with U25A, U27G, A30U, A31G
DNA 1: CAATCTGAATTCCGGTCTCCC
DNA 2: TGGTGGCTACGACGGGATT
B18: CCGCUCU (DNA:RNA)
RNA: B1 RNA with U25C, A26C, U27G, A28C, A30C, A31U
DNA 1: CAATCTGAATTCCGGTCTCCC
DNA 2: TGGTGGCTACGACGGGATT
B19: CUCAUGA (DNA:RNA)
RNA: B1 RNA with U25C, A26U, U27C, A30G
DNA 1: CAATCTGAATTCCGGTCTCCC
DNA 2: TGGTGGCTACGACGGGATT
B20: GAAGUCG (DNA:RNA)
RNA: B1 RNA with U25G, U27A, A28G, A30C, A31G
DNA 1: CAATCTGAATTCCGGTCTCCC
DNA 2: TGGTGGCTACGACGGGATT

Target: T1, RBFOX1 RRM
Assay: EMSA; HiTS-Eq, 1 nM pool, 10 min; buffer printed only for the single-RNA assays: 10 mM Tris pH 7.5, 150 mM NaCl, 3.4 mM EDTA, 0.001% NP-40, 30 C
Conditions: tags: His6 N-terminal (pET28a); label: 5' 32P
How it was run: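 These values rest on relative association constants, computed from read-count changes of each RNA species versus the control reaction and normalised to the cognate motif. Reads came from free RNA recovered by 8% native PAGE after purified RbFox RRM (wild type or mutant) at increasing concentrations was equilibrated for 10 min in 50 µL with 1 nM of a 5′-radiolabelled pool with 7 randomized nucleotides and DNA-annealed flanks.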

| Binder | binding signal |
| --- | --- |
| B1 | 0.00754 KA relative to UGCAUGU |
| B2 | 0.00839 KA relative to UGCAUGU |
| B3 | 0.0272 KA relative to UGCAUGU |
| B4 | 0.00343 KA relative to UGCAUGU |
| B5 | 0.0286 KA relative to UGCAUGU |
| B6 | 0.00294 KA relative to UGCAUGU |
| B7 | 0.0175 KA relative to UGCAUGU |
| B8 | 0.00477 KA relative to UGCAUGU |
| B9 | 0.0212 KA relative to UGCAUGU |
| B10 | 0.0169 KA relative to UGCAUGU |
| B11 | 0.00442 KA relative to UGCAUGU |
| B12 | 0.0144 KA relative to UGCAUGU |
| B13 | 0.0104 KA relative to UGCAUGU |
| B14 | 0.00672 KA relative to UGCAUGU |
| B15 | 0.0038 KA relative to UGCAUGU |
| B16 | 0.00365 KA relative to UGCAUGU |
| B17 | 0.0128 KA relative to UGCAUGU |
| B18 | 0.00711 KA relative to UGCAUGU |
| B19 | 0.00864 KA relative to UGCAUGU |
| B20 | 0.0101 KA relative to UGCAUGU |
